About 6,000 (1.7%) of roughly 360,000 compounds were called active. Inconclusive results, whose numbers are uncertain, are shown with a selection of clear calls. Calls come from the whole dose curve; as a rule, active = well fitted cell-killing curve with a large enough effect; inconclusive = small, poorly fitted or top-dose-only effect, or effect the other way; inactive = flat fitted curve, though single readings scatter. No potency is given beside an inconclusive call; the fits are too rough. Where a structure was tested more than once in an assay, its records may differ in their call.
Test: qHTS for induction of synthetic lethality in tumor cells producing 2HG: qHTS for the HT-1080-NT fibrosarcoma cell line;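 note: NT is the 2HG producing partner of a matched IDH1 knockdown line; nearly all actives have a fitted effect of over 55% in size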;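 for activity, negative = less viability: 0% = DMSO-treated cells and -100% = media-only wells without cells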
Conditions: HT-1080-NT fibrosarcoma viability, CellTiter-Glo ATP luminescence, 48 h; activity, negative = less viability: at 46.1 µM (top of the series) unless noted
Method in brief: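 Fibrosarcoma NT cells, 750 per well in 5% FBS RPMI, were exposed to compound for 48 hours. Viability: CellTiter-Glo luminescence.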
Potency is the fitted concentration of half-maximal effect; tags give direction and shape of the fitted curve.

Row | SMILES | Potency | activity, negative = less viability
1 | CCO[C@@H]1OC(C(=O)NCc2ccccc2)=C[C@H](c2csc3ccccc23)[C@H]1CCCO | inconclusive [cytotoxic, partial curve, poor fit] | –
2 | O=C(NNC(=O)c1cccs1)c1csc(N2CCOCC2)n1 | – | inactive: -0.802%
3 | Nc1ccc2nc(SCc3ccccc3F)sc2c1 | – | inactive: -18%
4 | Cc1ccccc1C(=O)Nc1cc(S(=O)(=O)N2CCCCC2)ccc1N1CCN(C)CC1 | inconclusive [cytotoxic, single point] | –
5 | Cn1c(SCC(=O)NCc2ccc3c(c2)OCO3)nc2scc(-c3cccs3)c2c1=O | – | inactive: -11.2%
6 | O=C(CN1CCN(c2ncc(C(F)(F)F)cc2Cl)CC1)NCCNc1ncc(C(F)(F)F)cc1Cl | inconclusive [cytotoxic, single point] | –
7 | CCOc1ccc(NC(=O)CCN2CCN(S(=O)(=O)c3ccc(Cl)cc3)CC2)cc1 | inconclusive [rising, partial curve] | –
8 | CN1CCN(CCCN2c3ccccc3Sc3ccc(C(F)(F)F)cc32)CC1 | active: 20.6 µM | –
9 | COC(=O)C(C(=O)OC)c1ccccc1NS(=O)(=O)c1ccc(C)cc1 | inconclusive [cytotoxic, single point] | –
10 | O=C(Cn1cnc([N+](=O)[O-])n1)N/N=C/c1ccc(O)cc1O | inconclusive [cytotoxic, partial curve] | –
11 | Cc1ccsc1/C=N/NC(=O)c1cc(-c2ccncc2)nc2ccccc12 | inconclusive [cytotoxic, full curve] | –
12 | O=C(CCCc1ccccn1)c1cccc2ccccc12 | – | inactive: -0.522%
13 | CCCOC(=O)c1cccc(Nc2nc(-c3cccnc3)nc3ccccc23)c1 | active: 25.9 µM | –
14 | CCOc1ccccc1Nc1nc2ccc(C)cc2n2cnnc12 | – | inactive: 0.182%
15 | COc1cc(OC)c(OC)cc1/C=C1\CC(C)C/C(=C\c2cc(OC)c(OC)cc2OC)C1=O (centres undefined) | inconclusive [cytotoxic, single point] | –
16 | CCc1ccc(NC(=O)CSc2nc3ccccc3c(=O)n2CCCN2CCC(C)CC2)cc1 | inconclusive [cytotoxic, single point] | –
17 | Cc1ccc(C(O)c2ncc(-c3ccccc3Cl)[nH]2)c(C)c1 (centres undefined) | inconclusive [cytotoxic, single point] | –
18 | O=C(NC(NC(=O)c1ccccc1)c1ccccc1)c1ccccc1 | inconclusive [cytotoxic, partial curve] | –
19 | COc1ccc([C@H]2/C=C\CN(C(=O)c3ccccc3)[C@@H](C)C(=O)N2Cc2ccc(F)cc2)cc1 | – | inactive: -6.95%

Reference: PubChem BioAssay AID686970 (National Center for Advancing Translational Sciences (NCATS), 2013)
